In all, about 48,000 compounds went through this assay and about 450 (0.94%) were called active. Roughly 19% stayed inconclusive and do not appear here. Calls come from the whole dose curve; as a rule, active = well fitted inhibition curve with a large enough effect; inconclusive = small, poorly fitted or top-dose-only effect; inactive = no such curve, though single readings can be large or run the other way. This is one part of the list.
Potency is the fitted concentration of half-maximal effect.

A short description of the test: Primary qHTS for Identification of Small Molecule Inhibitors of Huntingtin Promoter Activity. Note: nearly all actives have a fitted effect of over 50% in size. As to conditions: HEK293 HTT promoter firefly luciferase reporter (activity 0% = vehicle and -100% = no light), 24 h; series mostly up to 57.5 µM; activity change, negative = inhibition: at the top concentration. From the text:
Assay Provider: Russell L. Margolis M.D.
Department Neurology, Johns Hopkins University School of Medicine, Baltimore, MD
Huntington's Disease (HD) is a neurodegenerative disorder caused by a CAG repeat expansion in exon 1 of huntingtin (HTT). While there are currently no disease-modifying treatments for HD, recent efforts have focused on development of nucleotide-based therapeutics to lower HTT expression. As an alternative to siRNA or oligonucleotide methods, we hypothesized that suppression of HTT expression might be accomplished by small molecules that either (1) directly decrease HTT expression by suppressing HTT promoter activity or (2) indirectly decrease HTT expression by increasing the promoter activity of HTT-AS, the gene antisense to HTT that appears to inhibit expression of HTT.
We developed and employed a high throughput screen for modifiers of HTT and HTT-AS promoter activity using luminescent reporter HEK293 cells; of the 52,041 compounds tested, we identified 898 replicable hits. We used a rigorous stepwise approach to assess compound toxicity and the capacity of the compounds to specifically lower huntingtin protein in 5 different cell lines, including HEK293 cells, HD lymphoblastoid cells, mouse primary neurons, HD iPSCs differentiated into cortical-like neurons, and HD hESCs. We found no compounds which were able to lower huntingtin without lowering cell viability in all assays, though the potential efficacy of a few compounds at non-toxic doses could not be excluded.
SEQUENCE No. (1, 2, 3, etc.); […] (e.g., Cells, Incubation, Reagent, etc.); VALUE and DESCRIPTION.
1; Reagent; 4 uL; 2,500 Hek293 luciferase reporter cells per wells
3; Compound; 23 nL; Control inhibitor / compound library
5; Reagent; 2.5 uL; Firefly Luc reagent; Dual-Glo Luciferase Reporter Assay System (Promega)
6; Time; 10 min; room temperature incubation
7; Detection; Luminescence; FLuc
NOTES (numbers refer to sequence above)
1; High-throughput screening, measuring luminescence from a Hek293 luciferase reporter, was performed in 1,536 well white-walled tissue-culture treated plates. 2,500 cells were plated in 4 µL of Opti-MEM per well using a Multidrop Combi Reagent Dispenser (ThermoFisher).
2; Assay plates were cultured for 24 hours.
3; Control inhibitor (PTC124; final concentration of 50 uM) and compound library (at final concentrations of 460 nM - 57.5 uM) were added to the assay plate using the Kalypsis Pintool Robotic System equipped with 1536 pinheads.
4; Cells were then incubated for 24 hours at 37 degrees C prior to luminescence measurements.
5; In all cases, luminescence was measured using the Dual-Glo Luciferase Reporter Assay System (Promega) following the manufacturer's instructions.
6; Room temperature incubation.
7; Luminescence signal was obtained using the PerkinElmer ViewLux plate reader. Results were normalized to vehicle control (0% activity) and zero RLU (-100% activity).
(In general: In qHTS, concentration-response curves come from the screen itself.)
With `CCOc1ccc(C(=O)N2CCN(Cc3cc(=O)n4nc(-c5ccccc5Cl)sc4n3)CC2)cc1`, the “activity change, negative = inhibition” value was inactive: -8.69%.
Still for that read-out and setting: with `O=C(CSc1nnc(CNC(=O)c2c(F)cccc2Cl)o1)Nc1cccc(F)c1` the figure was inactive: -20.1%; with `CCOc1ccc(NS(=O)(=O)c2ccc(NC(=O)N3CCCC3)cc2)cc1`, inactive: -30.6%.
The same measure, in the same setting: with `CC(C)Cn1c(/C=C/c2ccc(F)cc2)nc2ccccc21` the figure was inactive: 25.7%; with `COc1ccccc1NC(=O)C1=C(C)Nc2nc(SCc3cc(C)ccc3C)nn2C1c1ccccc1` (centres undefined), inactive: 13.8%; with `COc1cc2nc(Cl)nc(N)c2cc1OC`, inactive: -4.07%.
Take `CCn1c(C)c(C)c2cc(C(=O)NCCc3ccc(C)cc3)ccc21`: the “activity change, negative = inhibition” value was inactive: -3.97%.
As to `Cc1ccccc1CS(=O)(=O)Cc1ccc(C(=O)NCc2ccc(F)cc2)o1`, the “activity change, negative = inhibition” value is inactive: -29.2%.
Still for that read-out and setting: with `Cc1ccc(C)c(NC(=O)c2cc(=O)c3cc(C)cc(C)c3o2)c1` the figure was inactive: 8.04% [at 11.5 µM]; with `COc1cccc(NC(=O)CCNC(=O)Cn2ccc3ccccc3c2=O)c1`, inactive: -16.7%.
Regarding `CCc1ccc(NCc2cc3cc4c(cc3n(CC(=O)Nc3ccc(F)cc3)c2=O)OCCO4)cc1`, the “activity change, negative = inhibition” value is inactive: -21.5%.
Still for that read-out and setting: with `Cc1ccc(NC(=O)CSc2nnc(N)s2)c(C)c1` the figure was inactive: -6.48%.
Take `COc1ccc(CNC(=O)C2CCN(S(=O)(=O)c3cccc4nonc34)CC2)cc1OC`: the “activity change, negative = inhibition” value is inactive: -0.655%.
On the same count and under the same terms, with `Cn1ccnc1SCC(=O)Nc1cc(Cl)ccc1Cl` the figure was inactive: -18.1%; with `CCCCNC(=O)CCc1c(C)nc2c(c(C)nn2-c2ccccc2)c1C`, inactive: -6.98%; with `CCN(CC)c1ccc(C2C(C(N)=O)=C(C)Nc3ncnn32)cc1` (centres undefined), inactive: -1.99%.
With `COc1ccccc1N1CCN(C(CNC(=O)C(=O)NCCc2ccccc2)c2cccnc2)CC1` (centres undefined), the Potency was active: 7.08 µM.
In the case of `Cc1ccccc1CN1CCCN(CC(=O)Nc2c(C)cccc2C)S1(=O)=O`, the “activity change, negative = inhibition” value was inactive: 0%.
Same read-out and setting: with `COc1cccc(OCc2nc3ccccc3n2CCOc2cccc(C)c2)c1` the figure was inactive: -1.51%; with `CCC(C(=O)Nc1ccc(C(C)=O)cc1)n1c(C)c2cnn(-c3ccccc3)c(=O)c2c1C` (centres undefined), inactive: -11.7%; with `Cn1c(=O)c2c(nc(SCC(=O)Nc3ccc(F)cc3)n2Cc2ccccc2)n(C)c1=O`, inactive: -11.4%.
Same read-out and setting: with `Fc1ccc(CNc2nc(-c3ccccc3)cc(C(F)(F)F)n2)cc1` the figure was inactive: -23.2%; with `Cc1cc(O)c(C(C)C)cc1Cl`, inactive: 11.5%.
For the compound `CCc1ccc(C2c3c(oc4ccc(C)cc4c3=O)C(=O)N2c2nc(C)c(C)s2)cc1` (centres undefined), the “activity change, negative = inhibition” value is inactive: 6.36%.
The same measure, in the same setting: to `COc1cc(NC(=O)Cn2cc(S(=O)(=O)c3ccccc3)c(=O)c3ccccc32)cc(OC)c1` belongs inactive: -12.5%; to `COc1cccc(-c2ccc3c(N)c(C(=O)Nc4ccc(C)c(F)c4)sc3n2)c1`, inactive: -8.23%.
Consider `COc1ccc(-c2cc(C(F)(F)F)nc(SCCC(=O)Nc3c(C)cccc3C)n2)cc1`, for which the “activity change, negative = inhibition” value was inactive: -1.7%.
As to `O=C(NCC12CC3CC(CC(C3)C1)C2)c1cc2nc(-c3ccc(F)cc3)cc(C(F)(F)F)n2n1`, the “activity change, negative = inhibition” value is inactive: -4.98%.
The same measure, in the same setting: with `O=C(Nc1ccc(F)cc1F)c1ccc(-n2cnnc2)cc1` the figure was inactive: 3.81%.
On the same count and under the same terms, with `Cc1cc(-n2c(C)nc3ccccc3c2=O)ccc1NC(=O)c1cccc([N+](=O)[O-])c1` the figure was inactive: 2.37%; with `Cc1cccc(NC(=O)CSc2cc(C)c3ccccc3n2)c1`, inactive: -13.3%.
`Cc1ccc(Cn2c(CNC(=O)c3ccccc3Br)nc3cccnc32)cc1`: the “activity change, negative = inhibition” value is inactive: -12.4%.
Still for that read-out and setting: with `CCc1ccccc1NC(=O)Cc1c(C(=O)O)[nH]c2ccc(Cl)cc12` the figure was inactive: -9.38%; with `CC(C)CNC(=O)C1=CC(c2ccc3c(c2)OCO3)=NS(=O)(=O)N1C`, inactive: -12.7%; with `Cc1ccc(-n2c(=O)c3oc4ccccc4c3n(CC(=O)Nc3ccccc3)c2=O)cc1C`, inactive: -29.9%.
The same measure, in the same setting: with `Oc1c(C(c2ccccc2)N2CCN(c3ccccc3)CC2)sc2nc(-c3ccco3)nn12` (centres undefined) the figure was inactive: -1.71%; with `O=C(NCCc1ccccc1)C(=O)Nc1cccc(Br)c1`, inactive: 13.4%.
For `CO/N=C(\C(=O)O)c1csc(NC(=O)CCl)n1`, the “activity change, negative = inhibition” value is inactive: -0.924%.
With `Cn1c(CCNC(=O)c2ccco2)nc2cc(NC(=O)COc3ccc(Cl)cc3)ccc21`, the “activity change, negative = inhibition” value was inactive: -12%.
The same measure, in the same setting: to `O=C(CSc1nc(=O)[nH]c2c1CCC2)NCc1ccccc1` belongs inactive: -18.1%; to `C=CC1=C(C(=O)O)N2C(=O)[C@@H](NC(=O)C(=NO)c3csc(N)n3)[C@H]2SC1`, inactive: -2.19%; to `Cc1ccc(C(=O)COC(=O)CCC(=O)Nc2ccc(Oc3ccccc3)cc2)cc1C`, inactive: -11.2%.
Consider `COc1ccc(-n2c(SCc3ccccc3F)nc3c([nH]c4ccccc43)c2=O)cc1`, for which the “activity change, negative = inhibition” value is inactive: -13.5%.
Still for that read-out and setting: with `Cc1ccccc1CSc1nnc2[nH]c(=O)cc(C)n12` the figure was inactive: -10.9%.
Same read-out and setting: to `O=C(Cn1cc(S(=O)(=O)Cc2ccc(F)cc2)c2ccccc21)NCc1ccccc1Cl` belongs inactive: -14.1%.
On the same count and under the same terms, with `CCOc1ccc(NC(=O)CSc2nnc(-c3ccc(C)cc3)c(-c3ccc(C)cc3)n2)cc1` the figure was inactive: 2.07%; with `Cc1oc2ncn(CC(C)C)c(=O)c2c1C(=O)NCCCN(Cc1ccccc1)C(C)C`, inactive: -17.6%.
On to `O=C(NC1CC(=O)N(c2ccc(Cl)cc2)C1)c1ccc(S(=O)(=O)N2CCCC2)cc1` (centres undefined), for which the “activity change, negative = inhibition” value was inactive: -17.8%.
On the same count and under the same terms, with `COc1ccc(CCNC(=O)C(=O)NCC(c2ccco2)S(=O)(=O)c2ccccc2)cc1OC` (centres undefined) the figure was inactive: -11.4%.
